Experimental data as given in article PMC4336329 (PLoS ONE, 2015).
Hit rate of the full screen: of about 310,000 compounds, about 14,000 (4.5%) showed an effect of 50% or more. Effects have a minus sign here. Some of the results follow.

Each molecule was assayed against human ether-à-go-go-related gene (hERG) potassium channel (human, UniProt Q12809) (assay: primary screen, population patch clamp on CHO cells stably expressing hERG).
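Note: peak tail current of the secondary pulse compared with the same well before compound.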

Sequence of human ether-à-go-go-related gene (hERG) potassium channel (Q12809 whole entry, looked up): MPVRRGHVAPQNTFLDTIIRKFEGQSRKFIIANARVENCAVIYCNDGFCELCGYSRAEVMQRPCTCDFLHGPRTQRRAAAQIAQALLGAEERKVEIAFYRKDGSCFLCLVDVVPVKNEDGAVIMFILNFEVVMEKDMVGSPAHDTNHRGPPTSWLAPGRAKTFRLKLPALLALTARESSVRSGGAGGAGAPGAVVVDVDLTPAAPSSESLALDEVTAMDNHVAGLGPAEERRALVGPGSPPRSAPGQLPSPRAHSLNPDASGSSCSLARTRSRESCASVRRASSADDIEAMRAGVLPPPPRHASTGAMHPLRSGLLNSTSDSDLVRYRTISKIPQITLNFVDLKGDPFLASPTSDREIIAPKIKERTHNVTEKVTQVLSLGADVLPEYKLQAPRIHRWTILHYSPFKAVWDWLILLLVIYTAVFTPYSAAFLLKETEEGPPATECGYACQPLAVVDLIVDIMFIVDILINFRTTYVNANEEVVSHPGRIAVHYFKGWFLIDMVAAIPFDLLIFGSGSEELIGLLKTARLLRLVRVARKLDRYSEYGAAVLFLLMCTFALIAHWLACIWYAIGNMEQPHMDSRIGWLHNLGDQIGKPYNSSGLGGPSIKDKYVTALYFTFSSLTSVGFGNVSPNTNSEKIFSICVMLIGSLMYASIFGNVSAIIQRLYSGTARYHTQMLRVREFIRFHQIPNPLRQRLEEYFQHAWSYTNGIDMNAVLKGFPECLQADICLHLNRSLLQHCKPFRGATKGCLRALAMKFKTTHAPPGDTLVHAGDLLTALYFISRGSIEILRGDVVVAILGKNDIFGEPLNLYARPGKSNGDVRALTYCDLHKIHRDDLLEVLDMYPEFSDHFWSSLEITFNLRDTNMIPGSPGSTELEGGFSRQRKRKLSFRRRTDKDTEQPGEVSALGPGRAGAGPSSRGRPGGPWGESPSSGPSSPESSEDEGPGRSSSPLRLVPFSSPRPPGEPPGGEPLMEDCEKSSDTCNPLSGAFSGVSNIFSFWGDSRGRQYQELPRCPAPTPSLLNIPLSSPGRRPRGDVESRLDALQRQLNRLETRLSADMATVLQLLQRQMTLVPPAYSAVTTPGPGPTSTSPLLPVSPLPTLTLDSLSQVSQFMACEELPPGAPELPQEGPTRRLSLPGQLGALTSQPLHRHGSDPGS

Row | Structure (SMILES) | hERG current change (%, negative = inhibition) at 10uM [%]
1 | COc1ccc(C(=O)Nn2cnc3scc(-c4cccs4)c3c2=O)c(O)c1 | -6.78
2 | CC1=C(C(=O)OC2CCCC2)C(c2coc3ccccc3c2=O)C2=C(CCCC2=O)N1 (centres unmarked) | -3.33
3 | C=CCSc1nc(C)c(Cc2cccc3ccccc23)c(=O)[nH]1 | 2.87
4 | COc1cccc(CN2CCC(C(=O)N3CCN(c4ccccc4F)CC3)CC2)c1OC.O=C(O)C(=O)O | -10.2
5 | N#CC1=C(N)N(c2ccccc2)C2=C(C(=O)CCC2)C1c1cccs1 (centres unmarked) | -28.1
6 | O=C(O)c1ccc2oc(SCC(=O)N3CCCCC3)nc2c1 | -33.7
7 | O=c1[nH]c(=O)n(Cc2ccccc2)c2c1CCC2 | 6.8
8 | COc1ccccc1-n1cnc2cc(C(=O)NCc3ccco3)ccc21 | -14.8
9 | O=C(C1=C[C@H](c2coc3ccccc3c2=O)C[C@H](OCc2ccc(CO)cc2)O1)N1CCN(Cc2ccc3c(c2)OCO3)CC1 | -57.2
10 | O=C(O)CCN1CC2([N+](=O)[O-])C=CC(=O)C([N+](=O)[O-])(C1)C2CC(=O)c1ccccc1 (centres unmarked) | 10.6
11 | C/C(=N\N=C\c1cccc(F)c1)c1nnn(-c2nonc2N)c1C | 0.95
12 | CC(C)Cn1c(N)c(C(=O)COC(=O)c2ccc(Cl)cc2)c(=O)n(C)c1=O | -37.4
13 | CC12C(=O)N(c3ccccn3)C(=O)C1C1C=CC2C1 (centres unmarked) | 13.7
14 | Cc1cc(C)nc(/N=C(\N)N2CCCCCC2)n1 | -3.86
15 | O=C(C1CCN(CC2CCCCC2)CC1)N1CCCC1 | 9.26
16 | Cc1nnc(SCC(=O)N(CC(C)C)c2c(N)n(Cc3ccccc3)c(=O)[nH]c2=O)n1N | 9.97
17 | Cc1cc(C)n2nc(C(=O)OCC(=O)Nc3ccc4c(c3)OC(F)(F)O4)nc2n1 | -63.8
18 | O=C(CNc1ccc(F)cc1F)NC(=O)NCc1ccco1 | 1.72
19 | O=C(O)c1ccc2c(=O)[nH]c(CCl)nc2c1 | -3.35
20 | CSc1nccc(-c2nn(-c3ccc(C)cc3)ccc2=O)n1 | -15
21 | COc1ccc(-c2nnc(SCCc3ccccc3)n2N)cc1 | -18.6
22 | CC(=O)c1cccc(NC(=O)c2sc(Cl)nc2C)c1 | 22.7

Row | Structure (SMILES) | hERG current change (%, negative = inhibition) at 10uM [%]
23 | O=C(COC(=O)CSc1ccccc1)NCCNC(=O)COC(=O)CSc1ccccc1 | -12.6
24 | O=C(CCC(=O)N(CC(=O)NC1CCCCC1)Cc1ccc(F)cc1)Nc1nccs1 | -3.45
25 | CC(=O)c1ccc(OCc2ccc(C(=O)c3ccccc3)cc2)cc1 | 0.433
26 | CCN(CC(=O)Nc1c(F)cccc1F)C(=O)CC1CCCC1 | -7.25
27 | CC(C)(Oc1ccc(Cl)cc1)C(=O)N/N=C/c1cn[nH]c1-c1ccccc1 | -11.2
28 | Cc1ccc2nsnc2c1NC(=O)c1ccccc1[N+](=O)[O-] | 7.96
29 | c1ccc(-c2ccncc2)nc1 | 21.4
30 | CCOc1ccccc1NC(=O)CSc1nnc(CNC(=O)c2ccccc2F)o1 | -1.3
31 | Cc1ccc(/C=N/Nc2nncn2N)cc1.Cl | 15.3
32 | C/C(=N/OC(=O)c1cccc(C(F)(F)F)c1)c1cnccn1 | 5
33 | C=CCn1c(=O)c2ccccc2n2c(Sc3nnnn3-c3ccccc3)nnc12 | 0.641
34 | O=C(NC(Cc1ccc(F)cc1)C(=O)O)c1ccccc1 (centres unmarked) | 13.8
35 | CN1/C(=C/C(=O)C2CCC2)Sc2ccccc21 | -7.2
36 | COc1cc(/C=N/NC(=O)CN(CCc2ccccc2)S(=O)(=O)c2ccc(NC(C)=O)cc2)cc(OC)c1OC | -3.41
37 | O=C(Cc1n[nH]c(=O)[nH]c1=O)N/N=C/c1cccc(Cl)c1 | 7.46
38 | CCN(C(=O)c1ccc(C)c(Br)c1)c1ccccc1 | -20.5
39 | O=C1C2ON(c3ccccc3)C(c3ccncc3)C2C(=O)N1c1ccccc1 (centres unmarked) | -3.36
40 | COCCn1cnc2c1c(=O)n(Cc1ccc(C#N)cc1)c(=O)n2Cc1ccccc1 | -34.3
41 | CCN(CC)S(=O)(=O)c1ccc2[nH]c(=O)cc(C(=O)Nc3ccc(C)cc3)c2c1 | 3.73
42 | O=C(c1ccco1)N1CCN(C(=S)Nc2ccccc2C(F)(F)F)CC1 | 2.09
43 | COc1ccc(-c2ccc(-c3nnc(-c4cc(OC)ccc4OC)o3)cc2)cc1 | 3.88
44 | Cc1ccc(C(=O)COC(=O)CNC(=O)C(c2ccccc2)c2ccccc2)cc1[N+](=O)[O-] | 4.33

Row | Structure (SMILES) | hERG current change (%, negative = inhibition) at 10uM [%]
45 | Cc1nc2ccccc2c(=O)n1NC(=O)c1ccccc1Cl | 7.14
46 | COc1cc(CCC(=O)Nc2ccc(S(=O)(=O)NC3=NCCCCC3)cc2)cc(OC)c1OC | 9.3
47 | CCC(C(=O)NCc1ccccc1OC)c1ccccc1 (centres unmarked) | -13.1
48 | COc1ccc(-c2nc(C)sc2CC(=O)O)cc1 | 5.41
49 | COc1ccc(C(=O)CCC(=O)N2CCN(c3cc(C)ccc3C)CC2)cc1 | -11.5
50 | Cn1nc(CC(=O)Nc2ccc3c(c2)OCCO3)c2ccccc2c1=O | 3.93
51 | CCCn1nnnc1NCc1cccc(OC)c1OC | 5.88
52 | COc1cc(N2CCCC2)c(OC)cc1/C=C(/C#N)c1cccc(Br)c1 | 16.1
53 | COC(=O)Cc1cc(OC)c(OC)cc1Cc1cc(OC)c(OC)cc1CC(=O)OC | 22.6
54 | CCn1c(COc2ccc(C)cc2)nnc1SCC(=O)Nc1ccc(S(N)(=O)=O)cc1 | -2.76
55 | COc1ccc(N2CCN(c3oc(-c4ccc(OC)c(OC)c4)nc3C#N)CC2)cc1 | -17
56 | CCOc1ccc(C(C(=O)NC2CCCC2)N(C(=O)c2snc(C(N)=O)c2N)c2cccc(O)c2)cc1 (centres unmarked) | 23.5
57 | Cc1ccc(S(=O)(=O)/C(C#N)=C/c2c(N3CC(C)OC(C)C3)nc3ccccn3c2=O)cc1 (centres unmarked) | -46.3
58 | Cc1ccc(S(=O)(=O)N2CCC(C(=O)N[C@@H](C)C(=O)NCc3ccco3)CC2)cc1 | -3.8
59 | Cc1cc(Sc2nccn2C)ncc1[N+](=O)[O-] | 8.24
60 | COc1cc(/C=N/NC(=O)c2cccnc2)ccc1OCC(=O)N1CCOCC1 | 6.31
61 | COc1cccc(-c2nnc(-c3ccccc3NC(=O)c3ccc(C(C)(C)C)cc3)o2)c1 | -6.59
62 | CCOC(=O)c1cc(C(=O)OCC)c(=O)[nH]c1N1CCCCC1 | 12.2
63 | CCOC(=O)C1=C(CN2CC(C)CC(C)C2)NC(=O)NC1c1ccc2c(c1)OCO2 (centres unmarked) | -8.66
64 | Cc1cc(C(F)(F)F)n2nc(-c3cccs3)cc2n1 | 14.4
65 | CCN(CC)S(=O)(=O)c1cc(C(=O)NCCN2CCOCC2)ccc1Cl.Cl | 2.59
66 | CCOc1ccccc1N1CCN(C(=O)NCc2ccc(C)cc2)CC1 | 21.7

Row | Structure (SMILES) | hERG current change (%, negative = inhibition) at 10uM [%]
67 | CCOC(=O)C1=C(c2ccccc2)N=c2s/c(=C\c3ccc(O)cc3)c(=O)n2C1c1cccs1 (centres unmarked) | -2.03
68 | CCC(c1nnnn1CS(=O)(=O)c1ccc(C)cc1)N1CCC(C(N)=O)CC1.Cl (centres unmarked) | -12
69 | CCOc1ccc(CNC(=O)C2CCN(c3nnc(C)c4c(C)n(-c5ccc(C)cc5)nc34)CC2)cc1 | -0.254
70 | Clc1ncccc1-c1nc2ccccc2s1 | 24.8
71 | CN(/C=C1/C(=O)CNC1=O)CCO | 15.9
72 | O=C(COC(=O)COc1ccc(Cl)cc1)Nc1ccc(N2CCOCC2)cc1 | 29.4
73 | CC(=O)N1CCCc2cc(S(=O)(=O)CCC(=O)N3CCN(c4cccc(C)c4)C(C)C3)ccc21 (centres unmarked) | -9.9
74 | CC(=O)Nc1nonc1-c1nc2ccccc2n1Cc1nnc(C)o1 | -6.37
75 | Nc1cc(-c2ccc(Cl)cc2)nn1S(=O)(=O)c1ccccc1 | 22.1
76 | CCCS(=O)(=O)N1CCN(Cc2ccccc2C(F)(F)F)CC1.O=C(O)C(=O)O | -13.9
77 | COc1cccc(CCC(=O)N2CCC(n3nccc3NC(=O)C3CCOC3)CC2)c1 (centres unmarked) | 14.9
78 | O=C1CCN(Cc2ccccc2)CCN1[C@H](COc1ccccc1)Cc1ccccc1 | -56.4
79 | CCn1c(CNc2nc3ccccc3n2C(C)C)nc2ccccc21 | -42.4
80 | Nc1nc2c(s1)COc1ccccc1-2 | 19.2
81 | CC1(CCc2ccccc2)NC(=O)N(CC(=O)Nc2ccccc2)C1=O (centres unmarked) | -5.5
82 | Cc1ccnc(NC(=O)CCNS(=O)(=O)c2ccc(C)c(C)c2)c1 | 3.94
83 | CCN(CC)CCN1C(=O)c2ccccc2NC1c1ccc(Br)cc1 (centres unmarked) | -85.7
84 | O=C(COC(=O)c1c2c(nc3ccccc13)CCCCC2)NCc1ccc2c(c1)OCO2 | -9.55
85 | COc1cccc(NC(=O)c2ccc3snnc3c2)c1 | 6.81
86 | CC1=C(C(=O)Nc2ccc(CC(=O)NCc3ccc(OC(C)C)cc3)cc2)SCCO1 | 14.5
